# Target: isolated recombinant JAK1 kinase domain (Homo sapiens (Human), UniProt P23458)
# Conditions: read-out: JAK1 Ki; isolated recombinant JAK1 kinase domain, 25 μM ATP
row,SMILES,Ki [nM]
1,"CN1CCN(C2CCN(C(=O)c3ccc(Nc4nc5c(C6=CCN(C(=O)CCC(F)(F)F)CC6)cccn5n4)cc3)CC2)CC1 [Example 2-393, 4,4,4-trifluoro-1-[4-[2-[4-[4-(4-methylpiperazin-1-yl)piperidine-1-carbonyl]anilino]-[1,2,4]triazolo[1,5-a]pyridin-8-yl]-3,6-dihydro-2H-pyridin-1-yl]butan-1-one]",0.96
2,"O=C(CCC(F)(F)F)N1CC=C(c2cccn3nc(Nc4ccc(C(=O)N5CCN(Cc6cccnc6)CC5)cc4)nc23)CC1 [Example 2-394, 4,4,4-trifluoro-1-[4-[2-[4-[4-(3-pyridylmethyl)piperazine-1-carbonyl]anilino]-[1,2,4]triazolo[1,5-a]pyridin-8-yl]-3,6-dihydro-2H-pyridin-1-yl]butan-1-one]",0.63
3,"O=C(CCC(F)(F)F)N1CC=C(c2cccn3nc(Nc4ccc(C(=O)N5CCN(c6cccnc6)CC5)cc4)nc23)CC1 [Example 2-395, 4,4,4-trifluoro-1-[4-[2-[4-[4-(3-pyridyl)piperazine-1-carbonyl]anilino]-[1,2,4]triazolo[1,5-a]pyridin-8-yl]-3,6-dihydro-2H-pyridin-1-yl]butan-1-one]",0.65
4,"O=C(CCC(F)(F)F)N1CC=C(c2cccn3nc(Nc4ccc(C(=O)N5CCCC5Cc5ccccn5)cc4)nc23)CC1 (stereo not drawn) [Example 2-396, 4,4,4-trifluoro-1-[4-[2-[4-[2-(2-pyridylmethyl)pyrrolidine-1-carbonyl]anilino]-[1,2,4]triazolo[1,5-a]pyridin-8-yl]-3,6-dihydro-2H-pyridin-1-yl]butan-1-one]",0.97
5,"O=C(CCC(F)(F)F)N1CC=C(c2cccn3nc(Nc4ccc(C(=O)N5CCN(c6ccccn6)CC5)cc4)nc23)CC1 [Example 2-397, 4,4,4-trifluoro-1-[4-[2-[4-[4-(2-pyridyl)piperazine-1-carbonyl]anilino]-[1,2,4]triazolo[1,5-a]pyridin-8-yl]-3,6-dihydro-2H-pyridin-1-yl]butan-1-one]",1.18
6,"O=C(CCC(F)(F)F)N1CC=C(c2cccn3nc(Nc4ccc(C(=O)N5CCN(CC6CC6)CC5)cc4)nc23)CC1 [Example 2-398, 1-[4-[2-[4-[4-(cyclopropylmethyl)piperazine-1-carbonyl]anilino]-[1,2,4]triazolo[1,5-a]pyridin-8-yl]-3,6-dihydro-2H-pyridin-1-yl]-4,4,4-trifluoro-butan-1-one]",2.39
7,"CC(CN(C)C)NC(=O)c1ccc(Nc2nc3c(C4=CCN(C(=O)CCC(F)(F)F)CC4)cccn3n2)cc1 (stereo not drawn) [Example 2-399, N-[2-(dimethylamino)-1-methyl-ethyl]-4-[[8-[1-(4,4,4-trifluorobutanoyl)-3,6-dihydro-2H-pyridin-4-yl]-[1,2,4]triazolo[1,5-a]pyridin-2-yl]amino]benzamide]",1.28
8,"CCCN1CCC(N(C(=O)c2ccc(Nc3nc4c(C5=CCN(C(=O)CCC(F)(F)F)CC5)cccn4n3)cc2)C2CC2)CC1 [Example 2-400, N-cyclopropyl-N-(1-propyl-4-piperidyl)-4-[[8-[1-(4,4,4-trifluorobutanoyl)-3,6-dihydro-2H-pyridin-4-yl]-[1,2,4]triazolo[1,5-a]pyridin-2-yl]amino]benzamide]",1.35
9,"Cc1cccc(C(C)NC(=O)c2ccc(Nc3nc4c(C5=CCN(C(=O)CCC(F)(F)F)CC5)cccn4n3)cc2)n1 (stereo not drawn) [Example 2-401, N-[1-(6-methyl-2-pyridyl)ethyl]-4-[[8-[1-(4,4,4-trifluorobutanoyl)-3,6-dihydro-2H-pyridin-4-yl]-[1,2,4]triazolo[1,5-a]pyridin-2-yl]amino]benzamide]",0.58
10,"CN(Cc1cccnc1)C(=O)c1ccc(Nc2nc3c(C4=CCN(C(=O)CCC(F)(F)F)CC4)cccn3n2)cc1 [Example 2-402, N-methyl-N-(3-pyridylmethyl)-4-[[8-[1-(4,4,4-trifluorobutanoyl)-3,6-dihydro-2H-pyridin-4-yl]-[1,2,4]triazolo[1,5-a]pyridin-2-yl]amino]benzamide]",0.6
11,"O=C(CCC(F)(F)F)N1CC=C(c2cccn3nc(Nc4ccc(C(=O)N5CCCC(N6CCCCCC6)C5)cc4)nc23)CC1 (stereo not drawn) [Example 2-403, 1-[4-[2-[4-[3-(azepan-1-yl)piperidine-1-carbonyl]anilino]-[1,2,4]triazolo[1,5-a]pyridin-8-yl]-3,6-dihydro-2H-pyridin-1-yl]-4,4,4-trifluoro-butan-1-one]",0.85
12,"O=C(CCC(F)(F)F)N1CC=C(c2cccn3nc(Nc4ccc(C(=O)N5CCC(Cc6ccccn6)CC5)cc4)nc23)CC1 [Example 2-404, 4,4,4-trifluoro-1-[4-[2-[4-[4-(2-pyridylmethyl)piperidine-1-carbonyl]anilino]-[1,2,4]triazolo[1,5-a]pyridin-8-yl]-3,6-dihydro-2H-pyridin-1-yl]butan-1-one]",0.6
13,"CN(Cc1ccc(N(C)C)cc1)C(=O)c1ccc(Nc2nc3c(C4=CCN(C(=O)CCC(F)(F)F)CC4)cccn3n2)cc1 [Example 2-406, N-[[4-(dimethylamino)phenyl]-methyl]-N-methyl-4-[[8-[1-(4,4,4-trifluorobutanoyl)-3,6-dihydro-2H-pyridin-4-yl]-[1,2,4]triazolo[1,5-a]pyridin-2-yl]amino]benzamide]",1.12
14,"CN(Cc1ccncc1)C(=O)c1ccc(Nc2nc3c(C4=CCN(C(=O)CCC(F)(F)F)CC4)cccn3n2)cc1 [Example 2-407, N-methyl-N-(4-pyridylmethyl)-4-[[8-[1-(4,4,4-trifluorobutanoyl)-3,6-dihydro-2H-pyridin-4-yl]-[1,2,4]triazolo[1,5-a]pyridin-2-yl]amino]benzamide]",0.63
15,"CN1CCC(N(C)C(=O)c2ccc(Nc3nc4c(C5=CCN(C(=O)C6CC6)CC5)cccn4n3)cc2)CC1 [Example 2-409, 4-[[8-[1-(cyclopropanecarbonyl)-3,6-dihydro-2H-pyridin-4-yl]-[1,2,4]triazolo[1,5-a]pyridin-2-yl]amino]-N-methyl-N-(1-methyl-4-piperidyl)benzamide]",4
16,"COCCC(=O)N1CC=C(c2cccn3nc(Nc4ccc(C(=O)N(C)C5CCN(C)CC5)cc4)nc23)CC1 [Example 2-411, 4-[[8-[1-(3-methoxypropanoyl)-3,6-dihydro-2H-pyridin-4-yl]-[1,2,4]triazolo[1,5-a]pyridin-2-yl]amino]-N-methyl-N-(1-methyl-4-piperidyl)benzamide]",6.67
17,"CC(C)CCC(=O)N1CC=C(c2cccn3nc(Nc4ccc(C(=O)N(C)C5CCN(C)CC5)cc4)nc23)CC1 [Example 2-412, N-methyl-4-[[8-[1-(4-methylpentanoyl)-3,6-dihydro-2H-pyridin-4-yl]-[1,2,4]triazolo[1,5-a]pyridin-2-yl]amino]-N-(1-methyl-4-piperidyl)benzamide]",4.35
18,"CN1CCC(N(C)C(=O)c2ccc(Nc3nc4c(C5=CCN(C(=O)N6CCOCC6)CC5)cccn4n3)cc2)CC1 [Example 2-413, N-methyl-N-(1-methyl-4-piperidyl)-4-[[8-[1-(morpholine-4-carbonyl)-3,6-dihydro-2H-pyridin-4-yl]-[1,2,4]triazolo[1,5-a]pyridin-2-yl]amino]benzamide]",19.6
19,"CCOC(=O)N1CC=C(c2cccn3nc(Nc4ccc(C(=O)N5CCC(N(C)C)C5)cc4)nc23)CC1 (stereo not drawn) [Example 2-414, ethyl 4-[2-[4-[3-(dimethylamino)pyrrolidine-1-carbonyl]anilino]-[1,2,4]triazolo[1,5-a]pyridin-8-yl]-3,6-dihydro-2H-pyridine-1-carboxylate]",3.2
20,"CCOC(=O)N1CC=C(c2cccn3nc(Nc4ccc(C(=O)NCC5CCCCN5C)cc4)nc23)CC1 (stereo not drawn) [Example 2-415, ethyl 4-[2-[4-[(1-methyl-2-piperidyl)methylcarbamoyl]anilino]-[1,2,4]triazolo[1,5-a]pyridin-8-yl]-3,6-dihydro-2H-pyridine-1-carboxylate]",1.71
21,"CCOC(=O)N1CC=C(c2cccn3nc(Nc4ccc(C(=O)NCCC5CCCNC5)cc4)nc23)CC1 (stereo not drawn) [Example 2-416, ethyl 4-[2-[4-[2-(3-piperidyl)ethylcarbamoyl]anilino]-[1,2,4]triazolo[1,5-a]pyridin-8-yl]-3,6-dihydro-2H-pyridine-1-carboxylate]",1.64
22,"CCOC(=O)N1CC=C(c2cccn3nc(Nc4ccc(C(=O)N5CCN6CCCC6C5)cc4)nc23)CC1 (stereo not drawn) [Example 2-418, ethyl 4-[2-[4-(3,4,6,7,8,8a-hexahydro-1H-pyrrolo[1,2-a]pyrazine-2-carbonyl)anilino]-[1,2,4]triazolo[1,5-a]pyridin-8-yl]-3,6-dihydro-2H-pyridine-1-carboxylate]",3.29
23,"CCOC(=O)N1CC=C(c2cccn3nc(Nc4ccc(C(=O)N(C)Cc5ccccn5)cc4)nc23)CC1 [Example 2-419, ethyl 4-[2-[4-[methyl(2-pyridylmethyl)carbamoyl]anilino]-[1,2,4]triazolo[1,5-a]pyridin-8-yl]-3,6-dihydro-2H-pyridine-1-carboxylate]",5.1
24,"CCOC(=O)N1CC=C(c2cccn3nc(Nc4ccc(C(=O)N5CC[C@H](N(C)C)C5)cc4)nc23)CC1 [Example 2-420, ethyl 4-[2-[4-[(3S)-3-(dimethylamino)pyrrolidine-1-carbonyl]anilino]-[1,2,4]triazolo[1,5-a]pyridin-8-yl]-3,6-dihydro-2H-pyridine-1-carboxylate]",2.89
25,"CCOC(=O)N1CC=C(c2cccn3nc(Nc4ccc(C(=O)N5CC(C(=O)N6CCN(C)CC6)C5)cc4)nc23)CC1 [Example 2-421, ethyl 4-[2-[4-[3-(4-methylpiperazine-1-carbonyl)azetidine-1-carbonyl]anilino]-[1,2,4]triazolo[1,5-a]pyridin-8-yl]-3,6-dihydro-2H-pyridine-1-carboxylate]",1.31
26,"CCOC(=O)N1CC=C(c2cccn3nc(Nc4ccc(C(=O)NCCc5cccnc5)cc4)nc23)CC1 [Example 2-422, ethyl 4-[2-[4-[2-(3-pyridyl)ethylcarbamoyl]anilino]-[1,2,4]triazolo[1,5-a]pyridin-8-yl]-3,6-dihydro-2H-pyridine-1-carboxylate]",1.8
27,"CCOC(=O)N1CC=C(c2cccn3nc(Nc4ccc(C(=O)NCCc5ccccn5)cc4)nc23)CC1 [Example 2-423, ethyl 4-[2-[4-[2-(2-pyridyl)ethylcarbamoyl]anilino]-[1,2,4]triazolo[1,5-a]pyridin-8-yl]-3,6-dihydro-2H-pyridine-1-carboxylate]",1.9

# Source: patent publication US9873709B2 (priority 2013, dated 2018)
